Measurements from the supplement of paper PMC4967469.
A lower IC50 marks a more sensitive line; a fit beyond the top or the lowest dose is shown as a bound at that dose. AUC is the area under the same curve over the 256-fold range up to the top dose, as a fraction: 1 means no effect, lower means more sensitive. For some assays here: A top dose marked as inferred is not printed in the source and was worked back from the curve model.

Tests used:
Experiment in all cases: Viability of human cancer cell lines after 72 h of drug (GDSC screen)
YK 4-279 = compound: COc1ccc(C(=O)CC2(O)C(=O)Nc3c(Cl)ccc(Cl)c32)cc1 [YK 4-279]; settings: top dose 10 µM
Procedure: (§1)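 Human cancer cell lines in 384-well plates, medium with 10% serum, drug for 72 h over a 256-fold dose range (nine 2-fold or five 4-fold steps up to the top dose). Adherent lines were fixed and stained with the nucleic acid dye Syto60, suspension lines read with resazurin; signal relative to control wells, capped at 0 and 100%. One two-parameter sigmoid per drug and line, fitted in a mixed model over all curves with the slope shared within a line.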

Etoposide = compound: COc1cc([C@@H]2c3cc4c(cc3[C@@H](O[C@@H]3O[C@@H]5CO[C@@H](C)O[C@H]5[C@H](O)[C@H]3O)[C@H]3COC(=O)[C@H]23)OCO4)cc(OC)c1O [Etoposide]; settings: top dose 16 µM
Procedure: as §1

GSK-650394 = compound: O=C(O)c1ccc(-c2c[nH]c3ncc(-c4ccccc4)cc23)cc1C1CCCC1 [GSK-650394]; settings: top dose 16 µM; top dose inferred
Procedure: as §1

XAV 939 = compound: Oc1nc(-c2ccc(C(F)(F)F)cc2)nc2c1CSCC2 [XAV 939]; settings: top dose 5 µM; top dose inferred
Procedure: as §1

NPK76-II-72-1 = compound: COc1cc(C(=O)NC2CCN(C)CC2)ccc1Nc1ncc2c(n1)N(C1CCCC1)C(C)CC(=O)N2C [NPK76-II-72-1]; settings: top dose 10.24 µM; top dose inferred
Procedure: as §1

BMS-345541 = compound: Cc1ccc2nc(NCCN)c3ncc(C)n3c2c1 [BMS-345541]; settings: top dose 16 µM
Procedure: as §1

Bexarotene = compound: C=C(c1ccc(C(=O)O)cc1)c1cc2c(cc1C)C(C)(C)CCC2(C)C [Bexarotene]; settings: top dose 8 µM
Procedure: as §1

AZD7762 = compound: NC(=O)Nc1cc(-c2cccc(F)c2)sc1C(=O)N[C@H]1CCCNC1 [AZD7762]; settings: top dose 2 µM
Procedure: as §1

| Cell Line | AUC (YK 4-279) | IC50 (YK 4-279) [µM] | AUC (Etoposide) | IC50 (Etoposide) [µM] | AUC (GSK-650394) | IC50 (GSK-650394) [µM] | AUC (XAV 939) | IC50 (XAV 939) [µM] | AUC (NPK76-II-72-1) | IC50 (NPK76-II-72-1) [µM] | AUC (BMS-345541) | IC50 (BMS-345541) [µM] | AUC (Bexarotene) | IC50 (Bexarotene) [µM] | AUC (AZD7762) | IC50 (AZD7762) [µM] |
| --- | --- | --- | --- | --- | --- | --- | --- | --- | --- | --- | --- | --- | --- | --- | --- | --- |
| RD (rhabdomyosarcoma, adherent) | 0.685 | 2.18 | 0.661 | 2.93 | 0.949 | > 16 | 0.979 | > 5 | 0.87 | > 10.2 | 0.893 | > 16 | 0.955 | > 8 |  |  |
| RERF-GC-1B (stomach, adherent) | 0.842 | 8.28 | 0.85 | 14.4 | 0.977 | > 16 | 0.929 | > 5 | 0.897 | > 10.2 | 0.881 | > 16 | 0.956 | > 8 |  |  |
| RT-112 (bladder, adherent) | 0.688 | 2.19 | 0.397 | 0.51 | 0.485 | 0.907 | 0.983 | > 5 | 0.863 | 10 | 0.873 | > 16 | 0.984 | > 8 |  |  |
| RXF393 (kidney, adherent) | 0.75 | 4.42 | 0.822 | 14.6 | 0.941 | > 16 | 0.921 | > 5 | 0.864 | > 10.2 | 0.895 | > 16 |  |  | 0.552 | 0.183 |
| SAS (head and neck, adherent) | 0.744 | 3.44 | 0.559 | 1.48 | 0.926 | > 16 | 0.977 | > 5 | 0.89 | > 10.2 | 0.887 | > 16 | 0.967 | > 8 |  |  |
| SCC-15 (head and neck, adherent) | 0.758 | 4.62 | 0.768 | 8.09 | 0.973 | > 16 | 0.844 | > 5 | 0.939 | > 10.2 | 0.887 | > 16 | 0.966 | > 8 |  |  |
| SK-CO-1 (large intestine, adherent) | 0.588 | 1.07 | 0.602 | 1.87 | 0.947 | > 16 | 0.978 | > 5 | 0.788 | 4.22 | 0.981 | > 16 | 0.98 | > 8 |  |  |
| SN12C (kidney, adherent) | 0.901 | > 10 | 0.598 | 1.92 | 0.888 | > 16 | 0.956 | > 5 | 0.963 | > 10.2 | 0.952 | > 16 | 0.937 | > 8 |  |  |
| SNU-398 (liver, adherent) | 0.763 | 3.73 | 0.497 | 0.981 | 0.842 | 11.8 | 0.984 | > 5 | 0.698 | 2.36 | 0.634 | 2.38 | 0.817 | 4.71 |  |  |
| SW156 (kidney, adherent) | 0.911 | > 10 | 0.773 | 6.91 | 0.807 | 9.31 | 0.974 | > 5 | 0.981 | > 10.2 | 0.927 | > 16 | 0.959 | > 8 |  |  |
| SW837 (large intestine, adherent) | 0.913 | > 10 | 0.942 | > 16 | 0.882 | > 16 | 0.944 | > 5 | 0.948 | > 10.2 | 0.855 | > 16 | 0.975 | > 8 |  |  |
| SW872 (soft tissue, adherent) | 0.626 | 1.34 | 0.429 | 0.651 | 0.824 | 8.35 | 0.953 | > 5 | 0.982 | > 10.2 | 0.929 | > 16 | 0.92 | > 8 |  |  |
| SW900 (lung squamous cell carcinoma, adherent) | 0.777 | 4.71 | 0.605 | 2.03 | 0.984 | > 16 | 0.969 | > 5 | 0.976 | > 10.2 | 0.927 | > 16 | 0.978 | > 8 |  |  |
| SW1088 (glioma, adherent) | 0.839 | > 10 | 0.975 | > 16 | 0.955 | > 16 | 0.896 | > 5 | 0.97 | > 10.2 | 0.957 | > 16 | 0.905 | > 8 |  |  |
| SW1463 (large intestine, adherent) | 0.873 | > 10 | 0.9 | > 16 | 0.889 | > 16 | 0.973 | > 5 | 0.975 | > 10.2 | 0.923 | > 16 | 0.969 | > 8 |  |  |
| TC-71 (Ewing sarcoma, adherent) | 0.668 | 1.68 | 0.851 | 9.19 | 0.992 | > 16 | 0.985 | > 5 | 0.743 | 2.73 | 0.882 | 12.1 | 0.99 | > 8 |  |  |
| TCCSUP (bladder, adherent) | 0.772 | 4.41 | 0.796 | 8.75 | 0.982 | > 16 | 0.952 | > 5 | 0.977 | > 10.2 | 0.957 | > 16 | 0.985 | > 8 |  |  |
| TE-10 (oesophagus, adherent) | 0.528 | 0.746 | 0.655 | 2.67 | 0.785 | 6.7 | 0.96 | > 5 | 0.979 | > 10.2 | 0.888 | > 16 | 0.961 | > 8 |  |  |
| U031 (kidney, adherent) | 0.872 | > 10 | 0.803 | 8.27 | 0.715 | 4.15 | 0.944 | > 5 | 0.977 | > 10.2 | 0.793 | 7.6 | 0.971 | > 8 |  |  |
